Consider 167 variants from the RNAGym collection of RNA variant scans (doi:10.7554/elife.90254).

The source gives no read counts; variants with many changes may rest on few reads.

To fix the notation:
B1: LINE1-mini (parent)
chain: GGCAGAGCUCAACACAGCGUGGCAAAGUGGCUGUGGCUAGACUGCC

The data set covers variants of B1. Briefly: self-cleavage, relative activity (ratio to wild type); higher = more cleavage; in vitro, sequencing; the parent is a self-cleaving ribozyme.
Take C18U A25U A41C G44A: the self-cleavage came to 0.01.

As to C18A G33U U34G, the self-cleavage is 0.

Turning to C18A G30A G33U G36U C42U, the self-cleavage is 0.03.

As for C18A U28G G33C C42A, the self-cleavage worked out at 0.

For the variant C18U A25G G40U, the self-cleavage was found to be 0.02.

Turning to C18G G27C G30U U43A, the self-cleavage came out at 0.

On to C18G G22A G36U, for which the self-cleavage worked out at 0.06.

Take C18G A41G C46A: the self-cleavage was 0.01.

Regarding C18G G22U U32A U38G, the self-cleavage came out at 0.01.

For C18A G36A C37U, the self-cleavage stood at 0.11.

Turning to C18A G36A C37A, the self-cleavage was found to be 0.04.

As for C18U A25G G35C, the self-cleavage was determined as 0.02.

Turning to C18A U32A G40C, the self-cleavage is 0.02.

For the variant C18A G33C C37U, the self-cleavage stood at 0.02.

As to C18G A24G G27U, the self-cleavage was 0.34.

As to C18G A26C G36A, the self-cleavage came out at 0.06.

With C18G C37A G40U, the self-cleavage stood at 0.06.

C18G G21A G36U: the self-cleavage was 0.1.

With C18G A25U U38C, the self-cleavage came out at 0.11.

As for C18G C23U G30C G40U, the self-cleavage amounted to 0.08.

With C18A G30C U34C, the self-cleavage was 0.01.

Turning to C18G A26C U28A C31G C45G, the self-cleavage came out at 0.04.

Take C18A U20A C23A A26C U32C G35C: the self-cleavage came to 0.04.

On to C18G G36A C37U, for which the self-cleavage was 0.01.

With C18G G21C U28G, the self-cleavage turned out to be 0.37.

On to C18G U34A A41U, for which the self-cleavage was 0.01.

For the variant C18A G35U G36A, the self-cleavage was found to be 0.06.

In the case of C18A G30A U43C, the self-cleavage came to 0.06.

Turning to C18A G30A U43A, the self-cleavage is 0.04.

Regarding C18G A25C U28C U32G U34G A39U, the self-cleavage was 0.02.

As for C18G G19A U28C G29U C31U C42U, the self-cleavage is 0.12.

On to C18G G27C U34C A39C C45G, for which the self-cleavage came out at 0.04.

On to C18A G33U C37A G44A, for which the self-cleavage is 0.02.

With C18G U43A G44U, the self-cleavage stood at 0.04.

C18A G35U C45A: the self-cleavage came to 0.01.

Regarding C18U A24U C45G, the self-cleavage came out at 0.17.

Turning to C18G G22C C42A, the self-cleavage worked out at 0.04.

Consider C18G G22C G27C, for which the self-cleavage is 0.49.

Consider C18G G22U A25G G35C A41U, for which the self-cleavage was determined as 0.

Regarding C18A U28G C37U, the self-cleavage is 0.04.

Regarding C18G G27U G29A, the self-cleavage stood at 0.28.

As to C18A G35A C42G, the self-cleavage came out at 0.03.

Regarding C18G G19C C37A, the self-cleavage stood at 0.04.

As for C18G G19A U43C, the self-cleavage was 0.07.

As for C18A U32A C42U, the self-cleavage worked out at 0.06.

Turning to C18G G22C G33U, the self-cleavage stood at 0.03.

Regarding C18A U38G A41C C45A, the self-cleavage came to 0.04.

Turning to C18G U20C G33C, the self-cleavage turned out to be 0.01.

In the case of C18A G29A G35U U38G, the self-cleavage worked out at 0.01.

Regarding C18G A25C G30C U32A, the self-cleavage is 0.14.

For C18G A25G A26G, the self-cleavage was 0.09.

With C18G G19C G44C, the self-cleavage was found to be 0.91.

Take C18G U20G U38C: the self-cleavage was determined as 0.

Take C18A G36U U38G C45U: the self-cleavage stood at 0.02.

As to C18A G30C U38A G40A, the self-cleavage was 0.14.

C18G U28G U32G: the self-cleavage was 0.04.

Turning to C18A G44C C45U, the self-cleavage stood at 0.01.

Consider C18A G30U G33C A39G G40C C45G, for which the self-cleavage was 0.01.

For the variant C18G G21C G22U, the self-cleavage was 0.11.

On to C18A G35U G40U, for which the self-cleavage was determined as 0.01.

On to C18G G21A C45A, for which the self-cleavage was 0.18.

For the variant C18G U28C C42U C46U, the self-cleavage was found to be 0.1.

C18A G35A G40U: the self-cleavage is 0.04.

C18G G21U C31A U38A G44A: the self-cleavage turned out to be 0.12.

On to C18G G22A U34A C46A, for which the self-cleavage was 0.

On to C18G G29C G33U G35U, for which the self-cleavage is 0.03.

Regarding C18A U20G G36A C42U, the self-cleavage came out at 0.06.

For C18G G22U G29U U32C C37G, the self-cleavage was 0.02.

For C18G G29U U34A, the self-cleavage came out at 0.12.

For the variant C18G G21U C23U G30U G33A, the self-cleavage was determined as 0.04.

As for C18A U28G C37A A39G, the self-cleavage is 0.05.

For the variant C18G U20G A26C C42A, the self-cleavage is 0.05.

For C18G G30A U38G G44U, the self-cleavage turned out to be 0.03.

Turning to C18G G30A U32A, the self-cleavage was determined as 0.

As for C18G G36U A41G, the self-cleavage was 0.02.

For C18G G36U A41U, the self-cleavage turned out to be 0.09.

For C18U A24G C31A G40U, the self-cleavage was found to be 0.06.

For the variant C18U A25C U32G A39U, the self-cleavage was 0.02.

With C18A G27A G40C A41U G44U, the self-cleavage worked out at 0.04.

As for C18A U38A C42U, the self-cleavage came to 0.06.

Turning to C18G C37A U38C C46A, the self-cleavage came to 0.04.

In the case of C18A U20G C23G, the self-cleavage came to 0.21.

C18A U28A C46G: the self-cleavage was found to be 0.06.

For the variant C18G G21U G29C, the self-cleavage came to 2.75.

As to C18A G27C G40U, the self-cleavage came to 0.04.

Consider C18G G33U G40A U43A, for which the self-cleavage was found to be 0.03.

Consider C18A U20G C31U, for which the self-cleavage worked out at 0.14.

For C18A U20G G29U, the self-cleavage came to 1.55.

Regarding C18G A24U G36U C46G, the self-cleavage came to 0.04.

Regarding C18G A26G A39G G44A, the self-cleavage was determined as 0.05.

Regarding C18A G27C C31U C45U, the self-cleavage came out at 0.05.

As for C18G G27C U32G A41G, the self-cleavage was found to be 0.03.

As to C18G G22A U28G, the self-cleavage was 0.07.

With C18A U20C G35C U43G, the self-cleavage was found to be 0.01.

In the case of C18G C23A G29U, the self-cleavage was found to be 2.15.

As for C18G G19C G36U C45A, the self-cleavage came out at 0.08.

For C18G U20A A26C G29C C45A, the self-cleavage is 0.14.

As to C18G G22U A25C G29A G44A C45A, the self-cleavage amounted to 0.1.

Turning to C18G A24U G30U A39U, the self-cleavage was determined as 0.6.

For the variant C18G U32G G36A U38C C46A, the self-cleavage worked out at 0.11.

For C18G C37G C45A C46U, the self-cleavage was determined as 0.06.

In the case of C18A U32A U38A, the self-cleavage was 0.01.

Take C18G G36A A39G G40C C46U: the self-cleavage amounted to 0.02.

As to C18G G21A A39G, the self-cleavage was 0.1.

On to C18G U20C C31A, for which the self-cleavage came to 0.02.

As to C18A G36A A41U, the self-cleavage is 0.3.

C18A U38C C45G: the self-cleavage was 0.03.

Take C18A G30A C31A: the self-cleavage was 0.04.

As to C18A G30A C31G, the self-cleavage worked out at 0.07.

For the variant C18G C23U G29A, the self-cleavage was found to be 0.21.

With C18A G27A A41U, the self-cleavage was 1.21.

C18G G27A G44C C46A: the self-cleavage was found to be 0.09.

Take C18A U34C A41C: the self-cleavage worked out at 0.08.

Turning to C18A U38A A39U C42G, the self-cleavage turned out to be 0.

For C18G C23A G36C G44C, the self-cleavage was determined as 0.01.

For the variant C18G U34A G40U A41U C42U, the self-cleavage was determined as 0.01.

Take C18G G30A G40U: the self-cleavage was 0.01.

Turning to C18G A26G A41G, the self-cleavage was found to be 0.02.

Regarding C18A U38A A39C, the self-cleavage was determined as 0.89.

For C18G G19U G40U U43A, the self-cleavage came out at 0.01.

For C18G A25U U38A G40U, the self-cleavage came to 0.02.

Take C18G G22A G44U: the self-cleavage stood at 0.04.

On to C18A G35U U43G, for which the self-cleavage came to 0.05.

C18G U20A G30U: the self-cleavage is 0.83.

Consider C18A G36A C42G, for which the self-cleavage came out at 0.02.

With C18G U28C A41G, the self-cleavage turned out to be 0.07.

In the case of C18A U28G G30A, the self-cleavage came to 1.63.

Regarding C18A G40C G44U, the self-cleavage came out at 0.01.

Consider C18A G30U U32A, for which the self-cleavage turned out to be 0.04.

In the case of C18G G22C G40U, the self-cleavage turned out to be 0.04.

As to C18G G27C C45U, the self-cleavage is 0.04.

For C18A U28C G33C U38G, the self-cleavage was determined as 0.

As to C18G G22U C23G, the self-cleavage amounted to 0.44.

For the variant C18G G27U U32A U38G, the self-cleavage amounted to 0.03.

Consider C18G G21U G22C A24G G30C G36A, for which the self-cleavage amounted to 0.11.

C18U A25C C45G: the self-cleavage worked out at 0.02.

With C18G G21A G22U U38C C46G, the self-cleavage is 0.05.

On to C18G G29U A39G, for which the self-cleavage was 0.14.

For the variant C18G G22C G33C G35U G44U, the self-cleavage stood at 0.02.

Take C18U A24G G27A G29U G30A G35U: the self-cleavage was 0.24.

Regarding C18A U34G C42U, the self-cleavage turned out to be 0.09.

On to C18A U20A G21A, for which the self-cleavage was determined as 1.61.

Consider C18G C31U G36C G40C C46U, for which the self-cleavage came to 0.05.

Consider C18G U20A G29C U32G G36U, for which the self-cleavage is 0.02.

Consider C18G G27U U32A C42U, for which the self-cleavage came to 0.01.

On to C18G C31U G44U, for which the self-cleavage is 0.05.

Regarding C18A U34A U43A, the self-cleavage is 0.06.

Consider C18A U43G C46A, for which the self-cleavage stood at 0.03.

C18A U20C C31U G35A C45A: the self-cleavage is 0.02.

As for C18G G30C A39C C45A, the self-cleavage was found to be 0.05.

As to C18G G19A G27C G29A G35C, the self-cleavage is 0.04.

With C18G G19C A41G C45A C46U, the self-cleavage turned out to be 0.03.

Take C18A U34C G44U: the self-cleavage amounted to 0.03.

Turning to C18G U20C G21A, the self-cleavage came to 0.09.

C18G G27C U34A G36C C42G: the self-cleavage is 1.01.

On to C18A G29C G30C G35A, for which the self-cleavage worked out at 0.02.

As to C18G G19A U32G, the self-cleavage turned out to be 0.06.

As to C18G A25U G35U U38G, the self-cleavage was 0.05.

C18G G33C G35U: the self-cleavage is 0.03.

Take C18G G33C G35A: the self-cleavage was 0.07.

Turning to C18G C23U C37U, the self-cleavage was found to be 0.05.

Consider C18A U34C G35A U38G C46U, for which the self-cleavage was 0.05.

Regarding C18G U20A U32G, the self-cleavage is 0.02.

In the case of C18A U34G A39U C45U, the self-cleavage worked out at 0.03.

As to C18G U20A A26U G36A, the self-cleavage came to 0.05.

Turning to C18G G33U A39G, the self-cleavage came out at 0.

With C18A U20C G30C, the self-cleavage came to 0.58.
